# The other results are listed elsewhere or left out. Many values rest on one well or one pass, so single values are uncertain.
# Assays:
# Assay in all cases: cell count relative to DMSO control; melanoma cells; higher = more viable cells
# Settings in all cases: library dose: low library concentration; 72 h
# WM115 = test system: WM115
# WM1716 = test system: WM1716
# WM1745 = test system: WM1745
# WM3526 = test system: WM3526
# WM3619 = test system: WM3619
# WM451Lu = test system: WM451Lu
# 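Note: cell number obtained by counting DAPI-stained nuclei in high-throughput microscope images with image analysis software, screen run in 1,536-well plates.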
smiles,measurement,setting,value
"CS(=O)(=O)CCNCc1ccc(-c2ccc3ncnc(Nc4ccc(OCc5cccc(F)c5)c(Cl)c4)c3c2)o1 [lapatinib] + Oc1cc(-c2nc(-c3ccccc3)[nH]c2-c2ccncc2)ccc1Cl [L779450] (first compound 0.8 µM, partner dose 0.2 µM)",cell count,WM115,89.7%
same,cell count,WM1716,119%
same,cell count,WM1745,91.1%
same,cell count,WM3526,76.8%
same,cell count,WM3619,75.5%
same,cell count,WM451Lu,108%
"C=CCNC1=C2C[C@@H](C)C[C@H](OC)[C@H](O)[C@@H](C)/C=C(\C)[C@H](OC(N)=O)[C@@H](OC)/C=C\C=C(/C)C(=O)NC(=CC1=O)C2=O [Tanespimycin] + Cc1ccc(NC(=O)c2cccc(N(C)C)c2)cc1NC(=O)c1ccc(O)cc1 [ZM336372] (first compound 0.002 µM, partner dose 2 µM)",cell count,WM115,123%
same,cell count,WM1716,119%
same,cell count,WM1745,91.6%
same,cell count,WM3526,112%
same,cell count,WM3619,113%
same,cell count,WM451Lu,107%
"CS(=O)(=O)CCNCc1ccc(-c2ccc3ncnc(Nc4ccc(OCc5cccc(F)c5)c(Cl)c4)c3c2)o1 [lapatinib] + COc1ccc2c(c1)CCC1C2CCC2(C)C(NCCCCCCN3C(=O)C=CC3=O)CCC12 [U73122] (first compound 0.8 µM, partner dose 0.4 µM)",cell count,WM115,97.5%
same,cell count,WM1716,92%
same,cell count,WM1745,106%
same,cell count,WM3526,97.3%
same,cell count,WM3619,85.5%
same,cell count,WM451Lu,110%
"C=CCNC1=C2C[C@@H](C)C[C@H](OC)[C@H](O)[C@@H](C)/C=C(\C)[C@H](OC(N)=O)[C@@H](OC)/C=C\C=C(/C)C(=O)NC(=CC1=O)C2=O [Tanespimycin] + Clc1ccc(Nc2nnc(Cc3ccncc3)c3ccccc23)cc1 [vatalanib] (first compound 0.002 µM, partner dose 2 µM)",cell count,WM115,82%
same,cell count,WM1716,98.8%
same,cell count,WM1745,75.2%
same,cell count,WM3526,92.4%
same,cell count,WM3619,59.2%
same,cell count,WM451Lu,79.2%
"CNC(=O)c1cc(Oc2ccc(NC(=O)Nc3ccc(Cl)c(C(F)(F)F)c3)cc2)ccn1 [sorafenib] + Cn1nnc2c(C(N)=O)ncn2c1=O [temozolomide] (first compound 0.4 µM, partner dose 2 µM)",cell count,WM115,101%
same,cell count,WM1716,80.2%
same,cell count,WM1745,109%
same,cell count,WM3526,94.7%
same,cell count,WM3619,90.5%
same,cell count,WM451Lu,82.2%
"CN1CCN(c2ccc3nc(-c4c(N)c5c(F)cccc5[nH]c4=O)[nH]c3c2)CC1 [Dovitinib] + O=c1cc(-c2cccc3c2Sc2ccccc2S3)oc(N2CCOCC2)c1 [KU55933] (first compound 0.1 µM, partner dose 1 µM)",cell count,WM115,99.7%
same,cell count,WM1716,116%
same,cell count,WM1745,76.3%
same,cell count,WM3526,95.5%
same,cell count,WM3619,111%
same,cell count,WM451Lu,112%
"C[C@@H](Oc1cc(-c2cnn(C3CCNCC3)c2)cnc1N)c1c(Cl)ccc(F)c1Cl [Crizotinib] + CN(NC(=O)CC(=O)NN(C)C(=S)c1ccccc1)C(=S)c1ccccc1 [STA4783] (first compound 0.2 µM, partner dose 0.006 µM)",cell count,WM115,68.6%
same,cell count,WM1716,74.6%
same,cell count,WM1745,76.1%
same,cell count,WM3526,120%
same,cell count,WM3619,86.1%
same,cell count,WM451Lu,115%
"C=CCNC1=C2C[C@@H](C)C[C@H](OC)[C@H](O)[C@@H](C)/C=C(\C)[C@H](OC(N)=O)[C@@H](OC)/C=C\C=C(/C)C(=O)NC(=CC1=O)C2=O [Tanespimycin] + Oc1nc(-c2ccc(C(F)(F)F)cc2)nc2c1CSCC2 [XAV939] (first compound 0.002 µM, partner dose 2 µM)",cell count,WM115,90.7%
same,cell count,WM1716,67.3%
same,cell count,WM1745,58.2%
same,cell count,WM3526,93.9%
same,cell count,WM3619,74.6%
same,cell count,WM451Lu,105%
"CS(=O)(=O)CCNCc1ccc(-c2ccc3ncnc(Nc4ccc(OCc5cccc(F)c5)c(Cl)c4)c3c2)o1 [lapatinib] + C#Cc1cccc(Nc2ncnc3cc(OCCOC)c(OCCOC)cc23)c1 [erlotinib] (first compound 0.8 µM, partner dose 0.8 µM)",cell count,WM115,107%
same,cell count,WM1716,99.6%
same,cell count,WM1745,99.2%
same,cell count,WM3526,98.6%
same,cell count,WM3619,92.2%
same,cell count,WM451Lu,108%
"C=CCNC1=C2C[C@@H](C)C[C@H](OC)[C@H](O)[C@@H](C)/C=C(\C)[C@H](OC(N)=O)[C@@H](OC)/C=C\C=C(/C)C(=O)NC(=CC1=O)C2=O [Tanespimycin] + O=C(Nc1cccc(Cl)c1)Nc1ncc(CCNc2ncnc3ccsc23)s1 [SNS314] (first compound 0.002 µM, partner dose 0.0008 µM)",cell count,WM115,64.5%
same,cell count,WM1716,102%
same,cell count,WM1745,92.3%
same,cell count,WM3526,91.8%
same,cell count,WM3619,91.6%
same,cell count,WM451Lu,87%
"C[C@@H](Oc1cc(-c2cnn(C3CCNCC3)c2)cnc1N)c1c(Cl)ccc(F)c1Cl [Crizotinib] + CCCS(=O)(=O)Nc1ccc(F)c(C(=O)c2c[nH]c3ncc(Cl)cc23)c1F [PLX4720] (first compound 0.2 µM, partner dose 0.08 µM)",cell count,WM115,85.7%
same,cell count,WM1716,119%
same,cell count,WM1745,90.6%
same,cell count,WM3526,89.3%
same,cell count,WM3619,105%
same,cell count,WM451Lu,97.3%
"C=CCNC1=C2C[C@@H](C)C[C@H](OC)[C@H](O)[C@@H](C)/C=C(\C)[C@H](OC(N)=O)[C@@H](OC)/C=C\C=C(/C)C(=O)NC(=CC1=O)C2=O [Tanespimycin] + CC(C)(C)c1cnc(CSc2cnc(NC(=O)C3CCNCC3)s2)o1 [SNS-032] (first compound 0.002 µM, partner dose 0.01 µM)",cell count,WM115,103%
same,cell count,WM1716,90.6%
same,cell count,WM1745,125%
same,cell count,WM3526,88.1%
same,cell count,WM3619,114%
same,cell count,WM451Lu,99.4%
"CS(=O)(=O)CCNCc1ccc(-c2ccc3ncnc(Nc4ccc(OCc5cccc(F)c5)c(Cl)c4)c3c2)o1 [lapatinib] + O=C(Nc1cccc(Cl)c1)Nc1ncc(CCNc2ncnc3ccsc23)s1 [SNS314] (first compound 0.8 µM, partner dose 0.0008 µM)",cell count,WM115,92%
same,cell count,WM1716,114%
same,cell count,WM1745,97.5%
same,cell count,WM3526,102%
same,cell count,WM3619,113%
same,cell count,WM451Lu,95.2%
"CS(=O)(=O)CCNCc1ccc(-c2ccc3ncnc(Nc4ccc(OCc5cccc(F)c5)c(Cl)c4)c3c2)o1 [lapatinib] + COCC[n+]1c2c(n(Cc3cnccn3)c1C)C(=O)c1ccccc1C2=O [YM155] (first compound 0.8 µM, partner dose 0.0004 µM)",cell count,WM115,93%
same,cell count,WM1716,89.5%
same,cell count,WM1745,79.7%
same,cell count,WM3526,88.4%
same,cell count,WM3619,107%
same,cell count,WM451Lu,82.8%
"CNC(=O)c1cc(Oc2ccc(NC(=O)Nc3ccc(Cl)c(C(F)(F)F)c3)cc2)ccn1 [sorafenib] + C=C(c1ccc(C(=O)O)cc1)c1cc2c(cc1C)C(C)(C)CCC2(C)C [Bexarotene] (first compound 0.4 µM, partner dose 2 µM)",cell count,WM115,108%
same,cell count,WM1716,91.3%
same,cell count,WM1745,85.2%
same,cell count,WM3526,98%
same,cell count,WM3619,105%
same,cell count,WM451Lu,93.6%
"C=CCNC1=C2C[C@@H](C)C[C@H](OC)[C@H](O)[C@@H](C)/C=C(\C)[C@H](OC(N)=O)[C@@H](OC)/C=C\C=C(/C)C(=O)NC(=CC1=O)C2=O [Tanespimycin] + C#Cc1cccc(Nc2ncnc3cc(OCCOC)c(OCCOC)cc23)c1 [erlotinib] (first compound 0.002 µM, partner dose 0.8 µM)",cell count,WM115,84.7%
same,cell count,WM1716,104%
same,cell count,WM1745,48.7%
same,cell count,WM3526,99.7%
same,cell count,WM3619,57.9%
same,cell count,WM451Lu,92.3%
"C[C@@H](Oc1cc(-c2cnn(C3CCNCC3)c2)cnc1N)c1c(Cl)ccc(F)c1Cl [Crizotinib] + C=CCNC1=C2C[C@@H](C)C[C@H](OC)[C@H](O)[C@@H](C)/C=C(\C)[C@H](OC(N)=O)[C@@H](OC)/C=C\C=C(/C)C(=O)NC(=CC1=O)C2=O [Tanespimycin] (first compound 0.2 µM, partner dose 0.002 µM)",cell count,WM115,94.6%
same,cell count,WM1716,129%
same,cell count,WM1745,98.9%
same,cell count,WM3526,119%
same,cell count,WM3619,88.4%
same,cell count,WM451Lu,99%
"CN1CCN(c2ccc3nc(-c4c(N)c5c(F)cccc5[nH]c4=O)[nH]c3c2)CC1 [Dovitinib] + Cn1cncc1[C@@](N)(c1ccc(Cl)cc1)c1ccc2c(c1)c(-c1cccc(Cl)c1)cc(=O)n2C [tipifarnib] (first compound 0.1 µM, partner dose 0.01 µM)",cell count,WM115,83.4%
same,cell count,WM1716,64.4%
same,cell count,WM1745,81.6%
same,cell count,WM3526,65.3%
same,cell count,WM3619,108%
same,cell count,WM451Lu,78.6%
"C[C@@H](Oc1cc(-c2cnn(C3CCNCC3)c2)cnc1N)c1c(Cl)ccc(F)c1Cl [Crizotinib] + C[C@@H]1CCN(C(=O)CC#N)C[C@@H]1N(C)c1ncnc2[nH]ccc12 [CP690550] (first compound 0.2 µM, partner dose 1 µM)",cell count,WM115,99.8%
same,cell count,WM1716,106%
same,cell count,WM1745,98.6%
same,cell count,WM3526,97.5%
same,cell count,WM3619,117%
same,cell count,WM451Lu,95.3%
"CNC(=O)c1cc(Oc2ccc(NC(=O)Nc3ccc(Cl)c(C(F)(F)F)c3)cc2)ccn1 [sorafenib] + C[C@]1(c2nc3c(C(N)=O)cccc3[nH]2)CCCN1 [Veliparib] (first compound 0.4 µM, partner dose 1.4 µM)",cell count,WM115,90.9%
same,cell count,WM1716,92.1%
same,cell count,WM1745,100%
same,cell count,WM3526,110%
same,cell count,WM3619,117%
same,cell count,WM451Lu,109%
"CNC(=O)c1cc(Oc2ccc(NC(=O)Nc3ccc(Cl)c(C(F)(F)F)c3)cc2)ccn1 [sorafenib] + C[C@@H]1CCN(C(=O)CC#N)C[C@@H]1N(C)c1ncnc2[nH]ccc12 [CP690550] (first compound 0.4 µM, partner dose 1 µM)",cell count,WM115,116%
same,cell count,WM1716,91%
same,cell count,WM1745,93.8%
same,cell count,WM3526,123%
same,cell count,WM3619,101%
same,cell count,WM451Lu,86.3%
"CN1CCN(c2ccc3nc(-c4c(N)c5c(F)cccc5[nH]c4=O)[nH]c3c2)CC1 [Dovitinib] + CCCS(=O)(=O)Nc1ccc(F)c(C(=O)c2c[nH]c3ncc(Cl)cc23)c1F [PLX4720] (first compound 0.1 µM, partner dose 0.08 µM)",cell count,WM115,94.2%
same,cell count,WM1716,105%
same,cell count,WM1745,74.1%
same,cell count,WM3526,65.5%
same,cell count,WM3619,108%
same,cell count,WM451Lu,86.7%
"CN1CCN(c2ccc3nc(-c4c(N)c5c(F)cccc5[nH]c4=O)[nH]c3c2)CC1 [Dovitinib] + COc1cc2ncnc(Nc3ccc(Oc4ccccc4)cc3)c2cc1OC [SrcI1] (first compound 0.1 µM, partner dose 2 µM)",cell count,WM115,100%
same,cell count,WM1716,129%
same,cell count,WM1745,94.4%
same,cell count,WM3526,98.7%
same,cell count,WM3619,128%
same,cell count,WM451Lu,101%
